In paper PMC12136788:
The list shows a part of the results.

T1: UNK ZnF1-3 (human, UniProt Q9C0B0 31-174)
T1 sequence: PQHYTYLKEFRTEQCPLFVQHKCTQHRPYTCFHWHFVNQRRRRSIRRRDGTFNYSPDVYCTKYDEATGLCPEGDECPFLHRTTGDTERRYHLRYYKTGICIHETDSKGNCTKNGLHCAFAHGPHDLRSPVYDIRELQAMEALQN

B1: chr4:116276896:116276897:-_ENSMUSG00000028693_ENSMUST00000030457|mus_hu|FALSE|FALSE (ssRNA)
RNA: GGGAGUUCUACAGUCCGACGAUCUUUGCUGAACUGUGCCACUGCCUCAUCAUACUGAGAGUUGUACCCAUAAGCCAAGCCCAGCUGGUAGUGGGUCUCUGCAAGGAGACGGUCGUGGGCUUCCAGGUACUGUUCCUGCAGGUUCAACAGAGGAUUGAGCAUCA
B2: chr18:34933064:34933065:+_ENSMUSG00000034300_ENSMUST00000097622|mus_mus|FALSE|FALSE (ssRNA)
RNA: GGGAGUUCUACAGUCCGACGAUCCAGCCACACGCACCACACACGCAGCACAGAUGCAGGCGUCUACACAGCAGCAGCCACAAGCCCCGGAGGUGUGCUCCACUCUGGGUAAGCCCACUGUGUGAGAACCCAAAUGAUGAAACUCAACAGAGGAUUGAGCAUCA
B3: chr9:26905460:26905461:-_ENSG00000137055_ENST00000397292|hu_hu|motif|central (ssRNA)
RNA: GGGAGUUCUACAGUCCGACGAUCUAUUCUCUUUUUUUAAUUAUCUGUUAUCAGUCAUGUCAAAUGUGAGGAAAAAAACACGGAUCAAUUAAAAAUAUCCGUCCCUCUUCCCCACUGCUACAGCAAAUUUAGGAUAAAUCUACACAACAGAGGAUUGAGCAUCA
B4: 128503968_128505323_866_CDS_ENSMUSG00000014355_ENSMUST00000014499|mouse|control|control (ssRNA)
RNA: GGGAGUUCUACAGUCCGACGAUCAGUUAUCUCAUCCAGUGGGUGCAGCAUGCUGAACAUAGUAGGCAAAGGUUCUCUAGGUAGACUUGGAGGUACCUCAUGUGAAGAACUGCAUCGUUCAAACAGCAAGCCAUAUUUAGUGGCCAACAGAGGAUUGAGCAUCA
B5: 87781024_87781144_2837_CDS_ENSMUSG00000004891_ENSMUST00000090973|mouse|control|control (ssRNA)
RNA: GGGAGUUCUACAGUCCGACGAUCUAUAAAGUUCUCCCCAUUUCUAUCUUCAAGAGAUCCCAGGAUCUCAUGAGUCUUGUCUUCUAGCAGGCUCUUAAUCAUGUGGUCAUCUUCUUCCAGAUACCUUGGUGACUGCACAUUCUCCAACAGAGGAUUGAGCAUCA
B6: chr2:73747280:73747281:-_ENSMUSG00000018770_ENSMUST00000018914|mus_hu|FALSE|FALSE (ssRNA)
RNA: GGGAGUUCUACAGUCCGACGAUCCUUCAGCGAAGGGUUUCUGGCAUAACCAAUGAUAAGGCUGCCAAAGACUGUUCCAAUACCAGCACCAGAACCAGCCACUCCUACUGUUGCAGCACCUGCACCAAUAAAUUUGGCAGCAGUCAACAGAGGAUUGAGCAUCA
B7: chr7:30977587:30977588:-_ENSMUSG00000001794_ENSMUST00000108196|mus_mus|FALSE|FALSE (ssRNA)
RNA: GGGAGUUCUACAGUCCGACGAUCAGCUGGACAAAAAGUUUCCUGAACUGACGGACUUCUUCACUCUCGUUGGCCUCAAUAUUGGAGUAAUGACUACGUGGAGGCGGAGGCUCCGGGUUGUACUGCGCAGCAGCCUCGCUCAUCCAACAGAGGAUUGAGCAUCA
B8: chr12:21621489:21621490:+_ENSG00000121350_ENST00000240651|hu_hu|FALSE|FALSE (ssRNA)
RNA: GGGAGUUCUACAGUCCGACGAUCGACUUUGAUGUAUUCUCGUCCUUUGGUACAUCUCAGCAUUAAUUCAUGAUCUGAACCUAAGCCCUGUGCAUUGUAUUUUCCCAGCAGUACAACCUUAUAGUUAAAAAAUUUUGUCACAUGCAACAGAGGAUUGAGCAUCA
B9: chr20:52831857:52831858:+_ENSG00000101132_ENST00000441080|hu_hu|motif|central (ssRNA)
RNA: GGGAGUUCUACAGUCCGACGAUCAAGCAUGAUGUCAUCACAAGCAUCUUCUAGGUUUUGGAGUUGUUUCUUUUUUACUUCGGUUUCUUCCUUCAGCUCUGUGAUUCUACUUGUAUUCCGUGCAAAUUUGUUUAUCUUUUGUUGCAACAGAGGAUUGAGCAUCA
B10: chr15:59387643:59387644:+_ENSG00000157450_ENST00000557998|hu_mus|FALSE|FALSE (ssRNA)
RNA: GGGAGUUCUACAGUCCGACGAUCAAGGGCGGUACUUAACUCAGAAUUCCAUAUUGUAAAUAUACAGCAGCCAUUUUGUCCUAAUUUAAUUAAGGAAUGUCUUAAUACACAAUAUCAUUUCCUAGAAAAUCUUUAUACAUUAAACAACAGAGGAUUGAGCAUCA
B11: chr22:46125322:46125323:+_ENSG00000130638_ENST00000252934|hu_hu|motif|central (ssRNA)
RNA: GGGAGUUCUACAGUCCGACGAUCAAACACAGGGAUGUCAUCCUUGGUGAGUGGCUCAUCACUCGUUAUCUUGGCGGUCAUAAGGUCGGACAGUGUAACUCUUUCUUGAUUGUUCAGUUUGGGAAACAUGGCUUGUACCAAUUCCAACAGAGGAUUGAGCAUCA
B12: 183502860_183506292_1210_CDS_ENSG00000116698_ENST00000515829|human|control|control (ssRNA)
RNA: GGGAGUUCUACAGUCCGACGAUCCCAGGGCCAAAUGUACUGUCUUUCAUCCACCACUGCCUCCUGAAAGACCCUGGGUCUGAGUCUUAGCCAGUCCAUGGAGACCUUGACUGCUGGAAGAGGAUAGGCAUUGUAGGACUCCUCCAACAGAGGAUUGAGCAUCA
B13: chr14:76904430:76904431:+_ENSMUSG00000022010_ENSMUST00000022587|mus_mus|mus_mus_mus_hu_True|58_88 (ssRNA)
RNA: GGGAGUUCUACAGUCCGACGAUCUGCAGCCAAAAACACCCUCGUGGCGGGAGGGAGGGAACACCAGCAGCCUUGUACAAACUAGAUAAAAUCUUCUGGCUUUCCGCAGCCCAGGGAGAAACAGAAAACGGCAGCCCUAAUUUACAACAGAGGAUUGAGCAUCA
B14: chr16:45382771:45382772:-_ENSMUSG00000022661_ENSMUST00000163230|mus_mus|mus_mus_mus_hu_True|48_78 (ssRNA)
RNA: GGGAGUUCUACAGUCCGACGAUCCUGGGUCAUGUUAUAAGACAAAUGGACAGGGAGAGCAUGCUUUUCAAAAAAUGUGAGCUAUUGACUAAGACUAACAAUAUUUAUCUAGCUAUAAAAAUAAGUUAAAUGAAUAAGUUAAGACAACAGAGGAUUGAGCAUCA
B15: chr1:39494447:39494448:+_ENSG00000168653_ENST00000372967|hu_mus|hu_hu_hu_mus_False|78_78 (ssRNA)
RNA: GGGAGUUCUACAGUCCGACGAUCGCACCGAGCGGCGUUCUUAUAGGGCUGUUCUGCACUCUGGAUUAUAAAGUGCCGGUCCAGGCUGAUGCCCAGCUUUUUCUGUAUGUCAAGGAAAGGCAUGGCUCUGCAGUGCCCUUGUCACAACAGAGGAUUGAGCAUCA
B16: chr17:64801638:64801639:+_ENSG00000154229_ENST00000413366|hu_mus|hu_hu_hu_mus_False|8_88 (ssRNA)
RNA: GGGAGUUCUACAGUCCGACGAUCUAUAUAUAUAUAUACAUAUGUACACAUAUGUAGUAAAACCCUAGUUAAACGUGUAAAGUAGCCAUUCAUUUUUAAAAUUACAUCUACAUUAAAAAAUUAAUAUAUCUGAUACAGUGCCAGCAACAGAGGAUUGAGCAUCA
B17: chr5:128448638:128448639:+_ENSG00000066583_ENST00000173527|hu_mus|hu_hu_hu_mus_False|18_28 (ssRNA)
RNA: GGGAGUUCUACAGUCCGACGAUCGGCACUCGCCUUAAUUAGGUUCUGAAUUUCCUUGAACUUCGGGUGGUCUUUGUCAGCCACCAGCUGUAGGAGGACAGCCUCACUCGUGGUCACUAUGAUCCCGGUGCGGGCAAGACGCUCCAACAGAGGAUUGAGCAUCA
B18: chr5:73612201:73612202:-_ENSMUSG00000070733_ENSMUST00000101127|mus_hu|FALSE|FALSE (ssRNA)
RNA: GGGAGUUCUACAGUCCGACGAUCUCACUUAGAAAUGGUUGUUGAGGCACAGAGUUUGUAGAAAAGACACCAAGUUUGGAAAGGAUCCAUCUAGAAGCUUUUUUGAUCUGGAGCUUGUACUUUACAGGCACUCGAGUGGGCACACAACAGAGGAUUGAGCAUCA
B19: chr16:23109248:23109249:+_ENSMUSG00000022884_ENSMUST00000115341|mus_hu|motif|central (ssRNA)
RNA: GGGAGUUCUACAGUCCGACGAUCAAGUGCCAGAAUUACCUUUUGGAUCUGUUGAGCCAGUUCUCUGGUGGGGGCCAAUACGGGUGCUUGGGUCUCCUUGAACUCAAUCUCCAACUGUUGCAGGAUGGAAAUAGCAAAUGUGGCCAACAGAGGAUUGAGCAUCA
B20: 9633971_9634091_4102_CDS_ENSMUSG00000048264_ENSMUST00000174552|mouse|control|control (ssRNA)
RNA: GGGAGUUCUACAGUCCGACGAUCCAUCACCGAAUAGGAACAGAAGGUAUCCCGGACUUUGUAUUGACUCACAGCAAGAAGCCACAAGGCAGGAUUGGUCUCCAGCUCAGAGGGUGGGAUCAGAAUGGACUGGUGUCCUGAGUACAACAGAGGAUUGAGCAUCA
B21: chrX:140365678:140365679:-_ENSMUSG00000031285_ENSMUST00000033642|mus_hu|FALSE|FALSE (ssRNA)
RNA: GGGAGUUCUACAGUCCGACGAUCGUCAGAGGACACAGCGUACACAAUCCCCUUGAAGUAGCGGUCCCCAUUGCGGUAGAAACGUACCUUCUUGGCUUUCUUCUCAUUACUCAGUGCCUGCAAGGUUCUGGUUCGGUAGAAGCUCAACAGAGGAUUGAGCAUCA
B22: 141029216_141029336_8087_CDS_ENSMUSG00000040761_ENSMUST00000078886|mouse|control|control (ssRNA)
RNA: GGGAGUUCUACAGUCCGACGAUCUGAGCCCUUCACAGGGCCCUUUAAGGCAUUCACCGGGACCAGAGAGACAUUCACCAGACCAGUCAGGGCACUCACCAGGCCAGUCAGGGUCUGAGGAGCUGGCUUUGCCAACGUGAUCUUCAACAGAGGAUUGAGCAUCA

biological target: T1, UNK ZnF1-3; test: nsRBNS (natural sequence RNA bind-n-seq); RBNS binding buffer (assumed for nsRBNS): 25 mM Tris pH 7.5, 150 mM KCl, 3 mM MgCl2, 0.01% Triton X-100, 500 ug/ml BSA, 20 U/ml SUPERase-In, 4 C; UNK is unkempt and MSI1 is Musashi-1; names of the RNAs are library labels; protein concentration not given here; high values mean tight binding

Q: B1 was tested. Which binding signal did it give?
A: 0.797 enrichment R

Q: How did the binding signal turn out when B2 was run?
A: 1.17 enrichment R

Q: With B3 as the binder, how does the binding signal read?
A: 0.626 enrichment R

Q: Which binding signal does the source give for B4 here?
A: 1.23 enrichment R

Q: With B5 as the binder, how does the binding signal read?
A: 0.517 enrichment R

Q: With B6 as the binder, how does the binding signal read?
A: 0.991 enrichment R

Q: For B7, which binding signal is on record?
A: 1.48 enrichment R

Q: For B8, which binding signal is on record?
A: 1.35 enrichment R

Q: For B9, which binding signal is on record?
A: 0.367 enrichment R

Q: With B10 as the binder, how does the binding signal read?
A: 0.707 enrichment R

Q: How did the binding signal turn out when B11 was run?
A: 0.767 enrichment R

Q: With B12 as the binder, how does the binding signal read?
A: 1.16 enrichment R

Q: Which binding signal does the source give for B13 here?
A: 2.12 enrichment R

Q: Which binding signal does the source give for B14 here?
A: 2.1 enrichment R

Q: For B15, which binding signal is on record?
A: 0.884 enrichment R

Q: B16 was tested. Which binding signal did it give?
A: 2.01 enrichment R

Q: Which binding signal does the source give for B17 here?
A: 0.459 enrichment R

Q: How did the binding signal turn out when B18 was run?
A: 1.28 enrichment R

Q: With B19 as the binder, how does the binding signal read?
A: 1.31 enrichment R

Q: B20 was tested. Which binding signal did it give?
A: 1.61 enrichment R

Q: B21 was tested. Which binding signal did it give?
A: 0.93 enrichment R

Q: Which binding signal does the source give for B22 here?
A: 0.763 enrichment R
